The whole screen tested about 350,000 compounds, of which about 260 (0.074%) were called active. Inconclusive results, whose numbers are uncertain, are shown with a selection of clear calls. Calls follow the shape of the dose curve; as a rule, active = well fitted inhibition curve with a large enough effect; inconclusive = small, poorly fitted or top-dose-only effect; inactive = no such curve, though single readings can be large or run the other way. Potencies of inconclusive entries are doubtful fits and often do not repeat.
These molecules were tested against Ferritin light chain (Equus caballus) (UniProt P02791) (assay: qHTS Assay for Identification of Novel General Anesthetics). Settings: apoferritin/1-aminoanthracene competitive binding, fluorescence; series mostly up to 77.5 µM.
Chain of UniProt P02791 (P02791 whole entry, looked up): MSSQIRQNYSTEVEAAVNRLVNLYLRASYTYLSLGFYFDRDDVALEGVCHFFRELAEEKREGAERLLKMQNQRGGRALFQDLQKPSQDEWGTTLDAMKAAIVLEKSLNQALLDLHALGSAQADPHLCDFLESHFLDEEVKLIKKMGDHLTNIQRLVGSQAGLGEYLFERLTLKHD
In short: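 Horse-spleen apoferritin (10 uM) in 50% saturated 1-aminoanthracene in PBS was incubated 10 min at room temperature with compound. Fluorescence (ex 380, em 535 nm) was normalized to free and bound 1-AMA, with concentration-response fitted by a four-parameter Hill equation.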
Also: nearly all actives have a fitted effect of over 20% in size.
Potency is read from the fitted curve at half-maximal effect; tags tell the direction and shape of the fitted curve.

| Structure (SMILES) | Potency |
| --- | --- |
| Cc1cc(C)cc(OCC(=O)O/N=C(\N)c2ccccn2)c1 | inconclusive: 39.8 µM [inhibitor, single point] |
| CCN(CC)C(=O)c1cc([N+](=O)[O-])cc2c1-c1ccc([N+](=O)[O-])cc1C2=C(C#N)C#N | inactive |
| CCc1ccc(NSc2ccccc2[N+](=O)[O-])cc1 | inconclusive: 31.6 µM [inhibitor, partial curve] |
| COc1cc(NC2=Nc3cccc4cccc2c34)cc(OC)c1OC | inconclusive: 14.1 µM [inhibitor, partial curve] |
| CCOc1cc(S(=O)(=O)N2CCCC2)ccc1Cl | inconclusive: 10 µM [inhibitor, partial curve] |
| O=[N+]([O-])c1cccc(CSc2nc3ccccc3[nH]2)c1 | inconclusive: 56.2 µM [inhibitor, single point] |
| COc1ccc(NS(=O)(=O)c2cc(NC(=O)CNC(=O)c3cccc(OC)c3)ccc2C)cc1 | inactive |
| COc1ccc(NC(=O)Cn2nnc(C(=O)NCc3ccc4c(c3)OCO4)c2N)c(OC)c1 | inconclusive: 3.16 µM [inhibitor, full curve] |
| Cc1nn(C(=O)c2nn(C)cc2[N+](=O)[O-])c(C)c1Br | inconclusive: 31.6 µM [inhibitor, partial curve] |
| O=c1ccc2cc(S(=O)(=O)N3CCN(c4ccccc4F)CC3)ccc2[nH]1 | inconclusive: 35.5 µM [inhibitor, single point] |
| CCC1(C)CC(CCNS(=O)(=O)c2ccc(C)cc2)(c2ccc(C)cc2)CCO1 (stereo not given) | inconclusive: 5.62 µM [inhibitor, single point] |
| CCOC(=O)c1sc(N(Cc2ccccc2)C(=O)CSc2nnc(C3CC3)n2N)nc1C | inconclusive: 8.91 µM [inhibitor, partial curve] |
| COc1cccc(CN(C)c2nc(-c3cccs3)nc3ccccc23)c1 | inactive |
| Fc1ccccc1Cn1nnc2c(NCCc3ccccn3)ncnc21 | inactive |
| CCOC(=O)/C(=N/Nc1ccc(Cl)cc1)S(=O)(=O)c1ccccc1 | inconclusive: 39.8 µM [inhibitor, single point] |
| Cc1ccc(CSc2nc3nc(C)cc(C)c3c(=O)[nH]2)cc1 | inconclusive: 25.1 µM [inhibitor, partial curve] |
| O=C(CSc1ccc(Cl)cc1)N/N=C/c1cccnc1 | inconclusive: 25.1 µM [inhibitor, partial curve] |
| COc1ccc(N2CCN(C(=O)CCC(=O)NNc3nc4ccccc4c4nc(C)nn34)CC2)cc1 | inactive |
| Cc1ccc(OCc2nnc(SCC(=O)Nc3ccccc3C(C)C)o2)cc1 | inconclusive: 31.6 µM [inhibitor, single point] |
| CN1CCN(S(=O)(=O)c2ccc(N3CCN(S(=O)(=O)/C=C/c4ccccc4)CC3)nc2)CC1 | inconclusive: 22.4 µM [inhibitor, partial curve] |
| COc1ccc(S(=O)(=O)NCCSCc2cccs2)cc1 | inconclusive: 28.2 µM [inhibitor, single point] |
| O=C(Nc1ccccc1N1CCCCC1)c1ccc2nccnc2c1 | inconclusive: 31.6 µM [inhibitor, single point] |

| Structure (SMILES) | Potency |
| --- | --- |
| COc1ccc(-c2cc(C3CCN(c4ncccc4[N+](=O)[O-])CC3)[nH]n2)cc1 | inconclusive: 31.6 µM [inhibitor, partial curve] |
| CCC/C=N/NC(=O)c1cc(Br)ccc1O | inactive |
| O=C(CCC1CCCCC1)Nc1cccnc1 | inconclusive: 28.2 µM [inhibitor, partial curve] |
| COC(=O)c1sccc1NC(=O)CSc1ccccc1N | inconclusive: 31.6 µM [inhibitor, partial curve] |
| C/C(=N\OCC(=O)N/N=C/c1ccccc1)c1cccs1 | inconclusive: 31.6 µM [inhibitor, partial curve] |
| Cc1ccc(-c2[nH]nc(N)c2N=Nc2cccc(Cl)c2C)cc1 | inconclusive: 12.6 µM [inhibitor, partial curve] |
| Cc1nn(Cc2c(F)c(F)c(F)c(F)c2F)c(C)c1NC(=O)c1cccc(COc2ccc(Cl)cc2)c1 | inconclusive: 2.51 µM [inhibitor, full curve] |
| Cc1cc([N+](=O)[O-])cc2c1NC(=O)C2(O)N1CCCC(C)C1 (stereo not given) | inconclusive: 56.2 µM [inhibitor, single point] |
| COc1ccccc1Nc1c2c(nc3ccc(NC(=O)/C=C/c4cc(OC)c(OC)c(OC)c4)cc13)CCCC2 | inconclusive: 31.6 µM [inhibitor, partial curve] |
| CCCOc1cccc(C(=O)NC(=S)Nc2ccccc2)c1 | inactive |
| CC(C)c1ccc(NC(=O)C2Cc3ccccc3N2C(=O)c2ccccc2)cc1 (stereo not given) | inactive |
| CC(=O)c1c(C)[nH]c(C(=O)CSc2nnc(-c3cccs3)n2Cc2ccccc2)c1C | inconclusive: 8.91 µM [inhibitor, partial curve] |
| Nn1c(SCc2ccccc2)nnc1-c1ccccn1 | inconclusive: 44.7 µM [inhibitor, single point] |
| O=C(Cn1nc(-c2ccc(Cl)cc2)ccc1=O)NCCCN1CCN(Cc2ccccc2)CC1 | inactive |
| Cc1ccc(O)c(-c2cc(-c3ccccc3C)[nH]n2)c1 | inconclusive: 50.1 µM [inhibitor, single point] |
| CC(=O)N1CCN(c2cc(N3CCc4ccccc4C3)c(F)cc2[N+](=O)[O-])CC1 | inconclusive: 35.5 µM [inhibitor, partial curve] |
| COc1ccc(NC(=O)NC23CC4CC(CC(C4)C2)C3)cc1OC | inactive |
| COc1cc(NC(=O)c2cc3nc(-c4ccc(C)cc4)cc(C(F)(F)F)n3n2)cc(OC)c1OC | inactive |
| Cc1nnc(Sc2cc(NCCO)c([N+](=O)[O-])c3nonc23)s1 | inactive |
| COc1cccc2sc(NNC(=O)C3COc4ccccc4O3)nc12 (stereo not given) | inconclusive: 22.4 µM [inhibitor, partial curve] |
| COc1ccc(C2C(C#N)=C(N)N(c3sc4c(c3C#N)CCCC4)C3=C2C(=O)CC(C)(C)C3)cc1 (stereo not given) | inconclusive: 3.16 µM [inhibitor, full curve, poor fit] |
| COc1ccc(NCc2nnc(SCc3ccccc3)n2-c2ccc(OC)cc2)cc1 | inconclusive: 22.4 µM [inhibitor, partial curve] |

| Structure (SMILES) | Potency |
| --- | --- |
| O=C(CCS(=O)(=O)c1cccs1)Nc1ccc(C(=O)NCc2ccccc2)cc1 | inconclusive: 50.1 µM [inhibitor, partial curve, poor fit] |
| CCCCCCOc1ccc(C(CC(N)=O)C(=O)O)cc1 (stereo not given) | inconclusive: 39.8 µM [inhibitor, partial curve] |
| Cc1ccc(C(C2C(=O)CC(C)(C)CC2=O)C2C(=O)CC(C)(C)CC2=O)s1 | inconclusive: 17.8 µM [inhibitor, partial curve] |
| N#C/C(=C\c1cccc(Oc2ccccc2)c1)C(=O)N1CCOCC1 | inconclusive: 35.5 µM [inhibitor, partial curve] |
| CCOc1cc(N2CCOCC2)c(OCC)cc1NS(=O)(=O)c1ccc(Cl)s1 | inconclusive: 39.8 µM [inhibitor, single point] |
| COc1ccc(CCNC(=O)c2c[nH]n3c(=O)c(Cc4ccccc4Cl)c(C)nc23)cc1OC | inactive |
| CC(C)(C)c1ccc(OCc2ccc(C(=O)Nc3cccnc3)o2)cc1 | inconclusive: 50.1 µM [inhibitor, single point] |
| CCn1c2c(c(=O)n3ncc(C(=O)Nc4ccc(OC(F)(F)F)cc4)c13)CN(Cc1ccc(OC)cc1)CC2 | inconclusive: 11.2 µM [inhibitor, partial curve] |
| Cc1nc(S(=O)(=O)N(C)c2ccccc2)c(C#N)c(C)c1Cl | inconclusive: 28.2 µM [inhibitor, partial curve] |
| Cc1ccc(NS(=O)(=O)c2ccc(NC(=O)C3CC3)cc2)cc1C | inconclusive: 35.5 µM [inhibitor, single point] |
| Fc1ccc([C@@H]2Nc3ccccc3[C@@H]3C=CC[C@@H]32)cc1 | inconclusive: 22.4 µM [inhibitor, partial curve] |
| Cc1ccc(C)c(Nc2ncnc3c2cnn3-c2ccc(F)cc2)c1 | inactive |
| COc1ccc(NC(=O)CSc2nnc(-c3ccccc3)n2Cc2ccco2)cc1OC | inconclusive: 35.5 µM [inhibitor, partial curve] |
| O=C(Nc1ccccc1)c1cccc(S(=O)(=O)N2CCCCC2)c1 | inconclusive: 25.1 µM [inhibitor, partial curve] |
| CCSC(=O)NC12CC3CC(CC(C3)C1)C2 | active: 8.91 µM |
| Cc1cc(S(=O)(=O)NCc2ccc3c(c2)OCO3)ccc1F | inconclusive: 31.6 µM [inhibitor, single point] |
| O=C(COC(=O)c1ccc(O)cc1)Nc1ccc(N2CCCCC2)cc1 | inconclusive: 28.2 µM [inhibitor, partial curve] |
| Cc1ccc(OCC(=O)N/N=C/c2ccc3c(c2)OCO3)cc1C | inconclusive: 11.2 µM [inhibitor, partial curve] |
| Cc1cccc(NS(=O)(=O)c2cc(C(=O)NCCC3=CCCCC3)ccc2Cl)c1 | inconclusive: 5.01 µM [inhibitor, partial curve] |
| O=C(CNC(=O)c1ccco1)OCC(=O)c1ccc2ccccc2c1 | inconclusive: 17.8 µM [inhibitor, partial curve] |
| COc1ccccc1N1CCN(C(=O)c2ccc(N(C)S(=O)(=O)c3ccccc3)cc2)CC1 | inconclusive: 39.8 µM [inhibitor, partial curve] |

From PubChem BioAssay AID485281 (National Center for Advancing Translational Sciences (NCATS), 2010)
